Drawing on paper PMC8666589 (Frontiers in Oncology, 2021), this text covers IC50 and EC50 for two molecules.

For test [1], the target named is T1, PD-L1 (human, UniProt Q9NZQ7 19-134).
T1 construct: PD-L1, human; In the SERS assay PD-L1 was carried on MNs (MNs@PD-L1); Source and limits of the protein may be in the supplementary materials; also called MNs@PD-L1; hPD-L1
Description: ELISA; competitive ELISA: inhibition of PD-1/PD-L1 by rU1 snRNPA or variants; curve fitting with GraphPad Prism 8.0; done in double; details in the supplementary materials (not shown). The settings on record: both partners purified. A general note: In an ELISA, binding on a coated surface is turned into a signal by an enzyme label.

Test [2] deals with T1, PD-L1. As to the kind of experiment: ELISA; binding ELISA of rU1 snRNPA or variants on PD-L1; curve fitting with GraphPad Prism 8.0; done in double; details in the supplementary materials (not shown). The following applies: both partners purified.
T1 sequence (Q9NZQ7 19-134): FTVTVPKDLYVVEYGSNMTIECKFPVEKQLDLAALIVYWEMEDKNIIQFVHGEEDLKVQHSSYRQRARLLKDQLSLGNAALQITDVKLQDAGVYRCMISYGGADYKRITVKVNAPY

B1: recombinant full-length U1 small nuclear ribonucleoprotein A (natural protein)
chain: not shown
notes: U1 small nuclear ribonucleoprotein A, human; also called rU1 snRNPA; U1 snRNPA
B1: in the test with PD-L1 [1], the IC50 (as a rule, the concentration that gives 50% inhibition) was determined as 18.1 nM. Also, the EC50 – broadly, the midpoint of the concentration-response curve – with PD-L1 [2] is 55.2 nM.

B2: rU1 snRNPA variant A32D (natural protein)
chain: not shown
notes: U1 small nuclear ribonucleoprotein A, human, full-length, with the single-point mutation A32D; source: E. coli, expressed and purified in the same way as the wild type
In the test with PD-L1 [1], B2 yielded an IC50 of 14.3 nM. The molecule further showed an EC50 in the test with PD-L1 [2] of 51.4 nM.
